# Test results taken from paper PMC4336329 (PLoS ONE, 2015).
# Among all 310,000 compounds or so, about 2,200 (0.71%) showed an effect of 50% or more. Effects have a minus sign here. The list shows a part of the results.
# Target: human ether-à-go-go-related gene (hERG) potassium channel (human, UniProt Q12809)
# Assay: primary screen, population patch clamp on CHO cells stably expressing hERG
# human ether-à-go-go-related gene (hERG) potassium channel, sequence (Q12809 whole entry, looked up): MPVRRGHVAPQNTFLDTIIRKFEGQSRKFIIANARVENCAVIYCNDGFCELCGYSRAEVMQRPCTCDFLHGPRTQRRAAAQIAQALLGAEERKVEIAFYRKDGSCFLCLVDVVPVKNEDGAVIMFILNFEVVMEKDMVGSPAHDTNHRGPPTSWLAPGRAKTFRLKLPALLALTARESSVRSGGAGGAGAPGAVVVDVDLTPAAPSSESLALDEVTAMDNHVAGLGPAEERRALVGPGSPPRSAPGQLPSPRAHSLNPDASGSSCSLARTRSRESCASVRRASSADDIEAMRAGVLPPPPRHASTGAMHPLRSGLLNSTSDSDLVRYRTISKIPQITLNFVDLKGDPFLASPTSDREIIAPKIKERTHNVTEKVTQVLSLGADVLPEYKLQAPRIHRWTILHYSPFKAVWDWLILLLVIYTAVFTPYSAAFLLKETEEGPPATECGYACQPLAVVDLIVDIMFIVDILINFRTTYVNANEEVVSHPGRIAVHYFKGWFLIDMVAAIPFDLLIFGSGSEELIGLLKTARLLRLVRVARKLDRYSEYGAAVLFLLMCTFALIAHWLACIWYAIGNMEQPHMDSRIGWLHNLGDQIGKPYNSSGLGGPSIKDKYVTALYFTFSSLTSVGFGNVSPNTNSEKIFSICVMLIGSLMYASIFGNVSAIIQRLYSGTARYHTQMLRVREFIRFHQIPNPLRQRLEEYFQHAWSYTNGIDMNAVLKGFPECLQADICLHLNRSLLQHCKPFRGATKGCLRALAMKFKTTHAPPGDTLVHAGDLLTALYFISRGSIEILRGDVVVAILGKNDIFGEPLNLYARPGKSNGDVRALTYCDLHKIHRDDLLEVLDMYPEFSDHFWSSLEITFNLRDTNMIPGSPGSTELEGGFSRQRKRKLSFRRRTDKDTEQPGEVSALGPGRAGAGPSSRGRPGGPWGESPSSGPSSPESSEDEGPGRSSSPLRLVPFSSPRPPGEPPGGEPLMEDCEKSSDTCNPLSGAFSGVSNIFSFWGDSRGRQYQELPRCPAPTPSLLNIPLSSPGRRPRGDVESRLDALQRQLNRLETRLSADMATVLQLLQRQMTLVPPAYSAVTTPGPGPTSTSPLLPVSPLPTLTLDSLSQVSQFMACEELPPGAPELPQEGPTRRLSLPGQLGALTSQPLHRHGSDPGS
row,Compound,"hERG current change (%, negative = inhibition) at 1uM [%]"
1,C(=N\N=C\c1ccccn1)/c1ccccn1,5.15
2,CCC1(CC)Cc2ccccc2-c2[nH]c(=S)[nH]c(=O)c21,7.03
3,O=C(OCC(=O)N1CCCC1=O)C1CCN(S(=O)(=O)c2ccc(Cl)c(C(F)(F)F)c2)CC1,12.7
4,O=C(CCC1CCCC1)N=C1SC2CS(=O)(=O)CC2N1c1ccccc1F (stereo not drawn),6.62
5,CC(N=Cc1c(O)[nH]c(=O)[nH]c1=O)c1ccccc1 (stereo not drawn),7.84
6,CC(=O)Nc1ccc(OCc2cccc3ccccc23)cc1,12.2
7,O=[N+]([O-])c1ccc2nc(NCCCO)nc(-c3ccccc3)c2c1,7.41
8,O=C(/C=C/c1ccc(Cl)cc1)Nc1ccc(CN2CCOCC2)cc1,1.34
9,O=C(c1ccc(N2CCN(S(=O)(=O)c3ccccc3)CC2)c([N+](=O)[O-])c1)N1CCOCC1,0.77
10,Cc1ccc(C)c(NC(=O)/C(C#N)=C/c2cn(CC(=O)NCc3ccco3)c3ccccc23)c1,14.5
11,COc1cc(OC)cc(-n2nnnc2SCC(=O)NC2CCCC2)c1,-2.92
12,C=CCN1CC(=O)N2C(c3ccccc3)c3[nH]c4ccccc4c3C[C@H]2C1=O (stereo partly drawn),6.93
13,Cc1cc(NC(=O)CN2C(=O)c3ccccc3S2(=O)=O)no1,13.8
14,O=C(C[n+]1ccc(C(=O)N/N=C/c2ccc(Cl)cc2Cl)cc1)c1ccccc1.[Br-],-63.3
15,Cc1cc(NC(=O)c2cc([N+](=O)[O-])ccc2Cl)no1,13.2
16,Cc1ccccc1NC(=O)C1CCCN1C(=O)NC1CCCCC1 (stereo not drawn),17.4
17,O=S(=O)(c1ccc(F)cc1)N1CCC(n2cnc3ccccc32)CC1,-3.52
18,CCOC(=O)C1=C(c2ccccc2)Nc2c(c(=O)n(C)c(=O)n2C)C1c1ccc(O)c(OC)c1 (stereo not drawn),2.01
19,CCCOc1ccc(C(=O)Nc2cc(-c3nn4c(C)nnc4s3)ccc2C)cc1,14.9
20,Cc1ccc(-c2nc(CS(=O)CC(=O)NCCN(CC(C)C)CC(C)C)c(C)o2)cc1 (stereo not drawn),-4.56
21,CN(C)c1ccc(/C=N/NC(=O)CNC(=O)/C=C/c2ccco2)cc1,8.77
22,CCOC(=O)N1CCC(N(CCN(C)C)C(=S)Nc2ccc(OCC)cc2)CC1,6.4
23,Cc1ccc(SCC(=O)NC2CCCCCC2)cc1,10.8
24,CCN(CC)C(=O)CSc1nnc(-c2cccs2)n1Cc1ccco1,2.57
